# Test results taken from the supplement of paper PMC3334620.
# Over roughly 33,000 sequences, “E-score (-0.5 to 0.5)” has its median near -0.056; the highest 2% begin near 0.38. The list shows a part of the results.
# Molecular target: Stb4 (UniProt P50104)
# Test: PBM E-score (8-mer binding enrichment) (E-score (-0.5 to 0.5)); higher = stronger / more preferred TF binding; most listed sequences are background and not binding sites
# Conditions: protein concentration: 200 nM; construct: GST-DNA-binding domain
# Protocol: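 Universal 'all 10-mer' protein binding microarrays (Agilent AMADID 015681) probed with GST-tagged S. cerevisiae TFs (full-length or DBD) made by in vitro transcription/translation (PURExpress), about 100-200 nM. Bound TF was detected with fluorescent anti-GST. Each ungapped 8-mer (which stands for itself and its reverse complement) is scored by the PBM enrichment score (E-score), a modified Wilcoxon-Mann-Whitney statistic from -0.5 to +0.5, computed with the Universal PBM Analysis Suite. Scale: above 0.35 generally sequence-specific binding.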
row,Sequence,PBM E-score
1,AAGGGATT,-0.205
2,ACTGAGGA,-0.0849
3,ATATTCTG,-0.0146
4,TCATACAA,0.0319
5,CCAGCTCG,-0.0202
6,CTATTGAA,-0.0769
7,CGGAGGCC,0.233
8,CACTGGCA,-0.23
9,AATACGTC,0.0988
10,CTTACGCA,-0.0829
11,CTAAGGTA,-0.0255
12,ATTAGCGA,-0.0133
13,ATTACATC,0.0659
14,ACTTGTCC,0.0306
15,ATTTATGC,-0.126
16,GACAAAAC,-0.0388
17,TTAAGTAA,0.0365
18,CTAAGGAC,-0.171
19,AGTGTATG,0.0323
20,AGGCGTCA,-0.346
21,ACGCTTAG,-0.202
22,CAGGTTCG,0.2
23,AATCGTCT,-0.222
24,AGACTACA,-0.135
25,ATTCCGAG,0.472

row,Sequence,PBM E-score
1,AAGCATTC,0.0236
2,CGGGGACC,0.189
3,ACTGTACC,0.147
4,GAGAGACA,-0.119
5,CGTAATCC,0.0908
6,AGCCGCAG,0.0821
7,AGATAAGG,-0.0299
8,TAGTGACA,-0.2
9,GGTAGCTA,-0.0552
10,AGGTATAT,-0.222
11,ACAAGCCT,-0.308
12,GTCTGCAA,0.0421
13,AGGGGATC,-0.0701
14,AGCGACCC,0.0831
15,ATTGTCAG,-0.151
16,ACATTGAA,-0.0609
17,ATCTAGCC,0.0343
18,CAGACTCG,-0.066
19,ACACGCTC,0.0442
20,GGGGCGCA,-0.23
21,CTTGCCGA,0.396
22,CCGCACCG,0.155
23,ATTAGCTC,-0.113
24,ATAACCTA,-0.0868
25,ACCTCAGC,-0.0537

row,Sequence,PBM E-score
1,AGGGCATG,-0.259
2,ACCGTGAA,0.00123
3,AGCCTACA,-0.16
4,CACTCGCC,-0.00692
5,GGGCCTGA,-0.175
6,GACGAATA,0.0471
7,CGTACAGA,-0.0914
8,AAGGAATG,0.0209
9,ATCTTCAA,-0.24
10,AATATGAG,-0.119
11,ACAGGTGC,-0.0918
12,ACGTAGTA,-0.0824
13,ACGGGCGA,0.106
14,AGTGCCAG,-0.113
15,ACTGATGG,-0.219
16,CCGGTACA,0.272
17,CAACAGCC,0.0759
18,CACGAAGA,-0.255
19,ATGTCATC,-0.14
20,CAGTGTCA,-0.135
21,CCACGCTA,-0.207
22,CTCTACGA,-0.192
23,AGCCTCCG,0.203
24,TACATAGA,-0.174
25,GTCTCACA,0.047

row,Sequence,PBM E-score
1,AGAGGGGA,-0.0413
2,AACCGGCG,0.253
3,GATTGGAA,-0.0263
4,GATACTAA,0.182
5,AAGTCATA,-0.174
6,ACGCAAGA,-0.204
7,ATGGAAAG,-0.0405
8,GCAACCGC,0.0272
9,ACAGGTTG,-0.21
10,CCGTTTCA,0.126
11,AGTCCTGG,-0.319
12,CGCATCTC,0.0906
13,AGCACTCG,0.124
14,AGGAAAGA,-0.174
15,ACCCGTCG,0.17
16,AACTTTGA,-0.166
17,TCCTCGCA,-0.138
18,CAAAGATG,-0.0814
19,CCATCCTC,0.147
20,CGCGGAAA,0.316
21,CAGCGACA,-0.189
22,GAAACACA,0.11
23,GACCCATC,0.0784
24,CATTTCGG,0.336
25,CTGCTGCA,-0.148

row,Sequence,PBM E-score
1,CGCAGAAC,-0.0819
2,AGTTTGAC,-0.0486
3,ATCAAGAC,-0.0811
4,CCACTTCC,0.127
5,ACGGATAA,0.416
6,ACTCAGTG,-0.208
7,CCTCGTCA,-0.0723
8,CTAGTTGA,-0.136
9,CCCTGTAA,-0.0872
10,CTCACTAC,-0.0955
11,AAAAAGCT,-0.0296
12,AATTAGAG,-0.102
13,CGAGGGCG,0.109
14,ACACAGAC,-0.114
15,AGGTTAAA,-0.0548
16,ACCATATC,0.0425
17,ATATATGG,-0.0678
18,AGTCTAAG,0.0423
19,CAGCTTGA,-0.225
20,ATTCTCAA,-0.252
21,GCAGTTCC,0.0961
22,AGTACATA,-0.0517
23,CGCTCCCC,-0.189
24,TCCTCAAA,-0.175
25,TATGCAAA,-0.133

row,Sequence,PBM E-score
1,GGCCGACC,0.186
2,AATGCATC,-0.132
3,AGAATATA,-0.0714
4,AACGGGCA,-0.064
5,AAATGCTA,0.0636
6,ACGATTCA,-0.053
7,AGGGTAAT,-0.0845
8,ACATGCAC,-0.184
9,GACAGCCC,-0.018
10,CCGTAGGC,0.132
11,GTCACCGA,0.111
12,GGATAGTA,0.231
13,CTGATTAC,0.0295
14,TATTAGCA,-0.148
15,CGTTGGTA,0.127
16,CCCAGTTA,-0.0445
17,CACATGTA,-0.209
18,ACCGCCCG,0.254
19,CTGTATTA,-0.108
20,AGTCTCAT,-0.0888
21,AAGTCGGG,0.306
22,GACTTTGA,-0.149
23,CCCAGTGA,-0.33
24,ATAATATC,-0.0702
25,CTATTGGA,-0.072

row,Sequence,PBM E-score
1,CTAGGGAA,-0.0336
2,CTCGACAC,-0.144
3,AGTGCAAC,0.0517
4,GTGTGGTA,-0.103
5,GTGCTCGA,0.00939
6,AAACGCAA,-0.027
7,GAGCATCC,0.258
8,CGCAATAC,0.0426
9,CCCCATCG,0.143
10,ATACGGCC,0.0364
11,CGGACATA,0.217
12,GGTCGATA,0.0179
13,CGACTCCA,0.0185
14,GAGATGAC,-0.0667
15,GCCAAATA,-0.14
16,GTGGTGCA,-0.0162
17,GCCGATCC,0.363
18,AACCAGAC,-0.233
19,CCATCTGC,0.0925
20,GGATACTA,0.266
21,ACACAGGC,-0.16
22,GAACGTTA,-0.00926
23,AAGAGTGG,-0.179
24,GGAACCAA,0.196
25,GATCCCCC,-0.0118

row,Sequence,PBM E-score
1,CCGTCCAG,0.0535
2,CCGCGTAG,0.0991
3,TAACGCAA,-0.157
4,GATGATGC,0.0163
5,GTGCCATA,-0.194
6,GCTAAGCC,-0.0224
7,CGCAACAC,-0.00156
8,GCGCAACC,-0.146
9,CATTACGG,0.00852
10,GGTCTAGA,-0.0983
11,GCGCATAC,0.0597
12,CACGGTAA,0.154
13,CGCTAGCC,-0.0364
14,CTCCTCAA,-0.119
15,CCGATATA,0.232
16,GTTCCCAA,-0.009
17,CTCCCCAA,-0.0153
18,AATTATTA,0.00691
19,ATCTAAAG,-0.0451
20,AGTTGCCG,0.3
21,CCGTTCAG,0.18
22,CTTAGGCC,-0.0865
23,ACGTCTAA,-0.212
24,CCTTTTCG,-0.00261
25,ACTACTTA,-0.187

row,Sequence,PBM E-score
1,TCCCGGGA,0.409
2,CTCTGGAA,-0.105
3,ACAACAAA,-0.0382
4,CCTCGGCA,0.461
5,GGCCAGAA,-0.0153
6,CAGACGAA,0.0157
7,CGCTTCGA,0.0358
8,CGAGCAAA,0.0293
9,AAACCGCG,0.147
10,CCGAGATA,0.405
11,AGAAATCA,-0.0716
12,CCCCTAGA,-0.421
13,CCACACAC,0.142
14,CTCCGGAC,0.285
15,AACGCGCG,-0.00161
16,ATGGAAAT,-0.00601
17,GGCAGCGA,-0.0169
18,GGGATACA,0.191
19,ACCGAGGC,0.302
